Consider 39 molecules from PubChem BioAssay (NCI).

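Dose response: 5 concentrations. Exposure: 48 h. Format: 96-well plates. Endpoint: linear interpolation; highest concentration if not reached. GI50: concentration for 50% inhibition of growth. Definition used: TGI = concentration required for complete inhibition of growth.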

This experiment deals with NCI-H322M lung. The experiment in a line: NCI-60 cell line screen, 48 h.
For the molecule `C/C(=N\NC(=S)NC(C)C)c1nc2ncccc2[nH]1`, the TGI is > 100 µM.

On to `CC(C)CC(N)C(=O)OCN1C(=O)C2C3C=CC(C2C1=O)C1C2C(=O)N(COC(=O)C(N)CC(C)C)C(=O)C2C31` (configuration not stated), for which the TGI was > 100 µM. With `O=C(CCN1CCN(c2cnc3ccccc3n2)CC1)c1csc2ccccc12`, the GI50 is > 100 µM and the TGI was > 100 µM. On to `Cc1cc(-c2nc3ccccc3s2)ccc1NS(=O)(=O)O`, for which the TGI is > 100 µM. On to `COc1ccc(C(=O)Nc2ncc(Cc3ccc(Cl)cc3)s2)cc1`, for which the GI50 is 0.259 µM and the TGI is > 100 µM. In turn, `CCCCCCCCCCCCCCCC(=O)NCC(COP(=O)([O-])OCC[N+](C)(C)C)OCC` (configuration not stated) gave a TGI of 36.6 µM. As to `C=CCN(CC=C)Cn1c(=S)sc2ccccc21`, the TGI is > 100 µM. `Cc1ccccc1C(C#N)C(=O)C(=O)Nc1nc([N+](=O)[O-])cs1` (configuration not stated): the TGI was > 100 µM. As for `O=C1CCCN(c2ccccc2)N1`, the TGI was > 100 µM. As for `Cc1ccc2c(c1)nc(N)n[n+]2[O-]`, the TGI is > 100 µM. Same read-out and setting: with `C[C@]12OC[C@H](c3ccccc3)N1C(=O)C1[C@H]2CC12SCCS2` (some centres not stated) the figure was > 100 µM. As for `Cn1cc(NC(=O)c2cc(NC(=O)CCCCCCCCCCC(=O)Nc3cc(C(=O)Nc4cc(C(=O)NCCC(=N)N)n(C)c4)n(C)c3)cn2C)cc1C(=O)NCCC(=N)N`, the TGI is 86.8 µM. In the case of `O=C(Nc1nc2ccccc2s1)OCC(F)(F)F`, the GI50 is > 100 µM and the TGI is > 100 µM. For the molecule `COc1ccc(NC(=O)Nc2n[nH]c3ccccc23)cc1`, the GI50 is > 100 µM and the TGI is > 100 µM. As for `CCN(CC)CCOC(c1cc(OC)ccc1OC)c1ccc2n1-c1ccccc1OC2` (configuration not stated), the TGI came to 31.2 µM.

For `N#CCCN(c1ccc(C=Nc2cccc([N+](=O)[O-])c2)cc1)S(=O)(=O)c1ccccc1`, the TGI is > 100 µM. As to `Cc1cccc(N2C(=O)C3ON(C(C(N)=O)c4ccccc4)C(c4c5ccccc5c(Cl)c5ccccc45)C3C2=O)c1C` (configuration not stated), the TGI was determined as 35.8 µM. On to `C1COCCN1.C1COCCN1.N.N.[Cl-].[Pt+2]`, for which the GI50 is 2.84 µM and the TGI is > 100 µM. With `COc1cc2ncn(-c3cc(OCc4ccccc4Cl)c(C(N)=O)s3)c2cc1OC`, the GI50 was 0.698 µM and the TGI is > 21.5 µM. As for `Cc1ccc(S(=O)(=O)N2CCN3C(=O)c4ccccc4C32c2ccc(F)cc2)cc1` (configuration not stated), the TGI is > 100 µM. For the molecule `CC(C)C(Sc1nc(-c2ccccc2)c(-c2ccccc2)[nH]1)C(=O)NNC(=S)Nc1ccccc1` (configuration not stated), the TGI amounted to 53.9 µM. As to `N#Cc1c(NC(=S)NC(=O)c2ccccc2)nc2c(c1-c1ccccc1)CCC2`, the TGI is > 100 µM. Consider `CC(CO)(CO)N=Cc1cc(I)cc(I)c1O`, for which the TGI came to 55.2 µM. As for `COC(=O)C1OC(O[C@H]2CCC3(C)C(CCC4(C)C3CC=C3C5CC(C)(C)CCC5(C(=O)O)CC[C@]34C)C2(C)C)C(O)C(OC2OC(CO)C(O)C(O)C2O)C1O` (some centres not stated), the GI50 was 7.57 µM and the TGI turned out to be 15.1 µM. For `O=C1CC(=O)N(c2ccccc2)N1/C(=C/c1ccccc1)c1ccccc1`, the TGI stood at 66.2 µM. Consider `O=C(/C=C/c1ccc(Cl)cc1)c1ccc(Cl)cc1Cl`, for which the GI50 is 8.23 µM and the TGI turned out to be 17.2 µM.

Take `N#CC1(c2nc3ccccc3o2)C(=O)C(=O)N(C2C3CC4CC(C3)CC2C4)C(=O)C1=O` (configuration not stated): the TGI was > 100 µM.

Regarding `Cc1cn(C2CC(N)C(CN)O2)c(=O)[nH]c1=O` (configuration not stated), the TGI was > 100 µM. On to `C=CC(=O)N[C@H]1C=C(C)c2c(-c3cnc4ccccc4c3)c3c(N)ncnc3n2C1`, for which the GI50 was 0.162 µM and the TGI was found to be 22.9 µM. For the molecule `COc1cccc(/C=C/C(=O)c2cc3c(N)c(C(=O)Nc4ccccc4C)sc3nc2C)c1`, the GI50 was 1.93 µM and the TGI worked out at 10.9 µM. In the case of `COC(=O)C(C#N)=C1c2ccccc2Oc2ccccc21`, the TGI is > 100 µM. In the case of `C=CC1=CSNN1`, the TGI is > 100 µM.

For `CCOC(=O)C1(CC)CCCCC(=O)N1` (configuration not stated), the TGI was > 100 µM. On to `COc1ccc(-c2nn(-c3cccc(Cl)c3)cc2C2CC(c3ccccc3)=NN2C(C)=O)cc1` (configuration not stated), for which the GI50 is 9.26 µM and the TGI is > 100 µM. Regarding `Nc1n[nH]c2ccc([C@@H]3Nc4ccc5[nH]ncc5c4[C@H]4[C@H]5CCC(C5)[C@H]43)cc12`, the GI50 was 1.17 µM and the TGI was > 100 µM.

Regarding `O=C(/C(=C(/Br)I)c1ccccc1)c1ccccc1`, the TGI is 42 µM. The molecule `FC(F)(F)c1nc(-c2ccccc2Cl)[nH]c1C(F)(F)F` gave a TGI of 3.55 µM. `CN1CCN(CC#Cc2cccc(C(=O)c3cnn(-c4ccc(F)cc4)c3N)c2)CC1`: the GI50 was > 25 µM and the TGI is > 25 µM. For `O=C1NC(c2ccc(O)cc2)C2CCC1C2` (configuration not stated), the TGI was > 100 µM.
